Source: the supplement of paper PMC3334620
In all, about 33,000 sequences were measured (“E-score (-0.5 to 0.5)”: median about -0.021, highest 2% from about 0.32 on). The list shows a part of the results.

biological target: T1, Zap1 (UniProt P47043); assay: PBM E-score (8-mer binding enrichment) (E-score (-0.5 to 0.5)); higher = stronger / more preferred TF binding; most listed sequences are background and not binding sites; conditions: protein concentration: 200 nM; construct: GST-full length
T1 sequence: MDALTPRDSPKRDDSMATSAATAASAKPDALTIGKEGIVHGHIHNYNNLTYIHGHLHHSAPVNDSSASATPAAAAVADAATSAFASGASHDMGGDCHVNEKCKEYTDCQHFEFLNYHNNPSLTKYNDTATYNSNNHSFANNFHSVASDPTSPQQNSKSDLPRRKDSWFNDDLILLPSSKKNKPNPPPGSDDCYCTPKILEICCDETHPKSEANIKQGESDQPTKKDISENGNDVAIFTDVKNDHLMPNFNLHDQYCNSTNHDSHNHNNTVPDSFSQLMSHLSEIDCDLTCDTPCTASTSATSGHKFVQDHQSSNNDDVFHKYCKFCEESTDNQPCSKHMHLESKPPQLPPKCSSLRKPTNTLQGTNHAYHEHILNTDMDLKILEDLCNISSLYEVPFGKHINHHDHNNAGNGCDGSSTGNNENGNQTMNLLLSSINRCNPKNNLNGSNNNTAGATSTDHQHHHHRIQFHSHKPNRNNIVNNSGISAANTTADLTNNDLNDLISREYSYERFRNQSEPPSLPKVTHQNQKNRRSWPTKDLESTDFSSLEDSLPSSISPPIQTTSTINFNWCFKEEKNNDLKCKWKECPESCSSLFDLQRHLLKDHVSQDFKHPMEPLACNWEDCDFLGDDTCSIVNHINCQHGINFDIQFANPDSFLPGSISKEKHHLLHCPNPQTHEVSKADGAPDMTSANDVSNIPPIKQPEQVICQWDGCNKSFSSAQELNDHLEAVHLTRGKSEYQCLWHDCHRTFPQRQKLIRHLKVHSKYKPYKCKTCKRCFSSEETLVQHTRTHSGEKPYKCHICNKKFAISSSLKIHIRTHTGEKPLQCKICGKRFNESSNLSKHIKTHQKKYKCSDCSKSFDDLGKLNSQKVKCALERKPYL
How it was run: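 Each ungapped eight-base word and its reverse complement, pooled, received an E-score from the Universal PBM Analysis Suite. Underlying scans, normalised with masliner, recorded fluorescent anti-GST bound to GST-tagged yeast transcription factors. These were applied at about 100-200 nM to universal all-10-mer Agilent arrays double-stranded by primer extension.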

Row | Sequence | PBM E-score
1 | AACGGGGA | -0.0385
2 | CGCTTTAC | -0.0313
3 | GCCTGCGA | -0.168
4 | GCAATTGA | 0.0395
5 | AATGAACT | -0.0589
6 | TCATCCAA | -0.017
7 | GCGGGAGA | -0.309
8 | CTGTTAGC | -0.103
9 | ACTAAATC | 0.0999
10 | CAGTATAG | 0.167
11 | AAAGATGA | -0.00594
12 | CACACGGC | -0.0901
13 | AAGATGAC | 0.0452
14 | CAATCACC | 0.146
15 | GGAAGTGA | 0.00846
16 | AGATTGAG | 0.0784
17 | CAAAACGC | 0.0726
18 | CGCGCGCC | 0.1
19 | ATAAGTAC | 0.139
20 | ACAGAGGC | -0.223
21 | CCAAGGCG | -0.266
22 | ATTAAGGG | 0.147
23 | CCGCAGAC | -0.0797
24 | CGTTTTTC | 0.0868

Row | Sequence | PBM E-score
25 | GACACCGC | -0.115
26 | TGAGTGCA | -0.113
27 | AAGAAGGA | -0.203
28 | AAGGATAT | 0.041
29 | GAGTCAAC | -0.169
30 | AATTAGGA | -0.0106
31 | AACACCCG | 0.177
32 | AATTTTTA | 0.153
33 | ACACCGCA | 0.195
34 | CCCGCAAG | -0.21
35 | GACACCTC | -0.0633
36 | CACTCTTA | 0.0979
37 | ACTCCAGA | -0.174
38 | GCCCGGGC | -0.136
39 | GCGTGTCA | 0.00317
40 | CTTGAAAC | 0.158
41 | AGAACGAT | 0.103
42 | ACTAGTAG | 0.0456
43 | CTTCGACA | 0.0154
44 | ATGCGCAC | -0.0707
45 | CGGAATAC | 0.101
46 | ACACTCTA | 0.0716
47 | AGGAAGAG | -0.103
48 | CATCCTAG | -0.154

Row | Sequence | PBM E-score
49 | ATCGTACA | -0.00473
50 | AGGTCTCA | 0.16
51 | ACCCGTCT | -0.0166
52 | TCCTCACA | 0.0409
53 | TACTAAAA | 0.22
54 | ACGGAGAG | -0.181
55 | GAGAGTGA | -0.0772
56 | AAATGTCA | -0.105
57 | GGGAAACA | 0.0145
58 | CCGAACGA | -0.0693
59 | AGCCCGCG | -0.108
60 | AATGTATG | 0.0128
61 | ATTTTTTA | 0.192
62 | GATCGCCA | -0.194
63 | TGTCGGAA | -0.0861
64 | CATCCATG | -0.0427
65 | GACCGGAA | -0.04
66 | CAAACGAC | 0.116
67 | AAAGCGTG | -0.104
68 | AGGGCGAA | -0.094
69 | CCAGCCCA | -0.153
70 | CCTGAGGC | -0.253
71 | CCACACGC | -0.0746
72 | GACCACGC | -0.00263

Row | Sequence | PBM E-score
73 | TCTCGCCA | -0.206
74 | ACCTGGTC | 0.107
75 | CGTGCTAC | -0.181
76 | CAAGTAAA | -0.0381
77 | CGTTGTTC | -0.0987
78 | CTGGTAGA | 0.208
79 | CGGGGTAA | 0.299
80 | CCATCCAA | -0.0626
81 | CATTCGGA | -0.0464
82 | ACAATTTC | -0.111
83 | ATCTGCCG | -0.0036
84 | GCTTCCGA | -0.0201
85 | CTCTGTAA | -0.0317
86 | ATATGGTG | 0.03
87 | GACCAGTA | 0.0618
88 | CCAACTTC | -0.0523
89 | ACCCCCAG | -0.0789
90 | GTGAATTA | 0.206
91 | CTTAGAGC | 0.0313
92 | AGCTTCCA | -0.202
93 | ACAGAGGT | 0.283
94 | AGCGATAA | 0.00415
